Measured values: article PMC6919601, “Identification of Plasmodium dipeptidyl aminopeptidase allosteric inhibitors by high throughput screening” (PLoS ONE, 2019)
Hit rate of the full screen: of about 110,000 compounds, about 230 (0.21%) showed an effect of 50% or more. Some of the results follow.

Target: DPAP1 (Plasmodium falciparum, UniProt Q8IIJ9)
Experiment: primary screen, percent inhibition; read by cleavage of a fluorogenic dipeptide substrate; higher = more effect of the substance
Set-up: species or system P. falciparum D10 trophozoite lysates; single well
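Also: 30 min substrate incubation versus DMSO and 10 µM JCP410 controls.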

Chain of DPAP1 (Q8IIJ9 whole entry, looked up): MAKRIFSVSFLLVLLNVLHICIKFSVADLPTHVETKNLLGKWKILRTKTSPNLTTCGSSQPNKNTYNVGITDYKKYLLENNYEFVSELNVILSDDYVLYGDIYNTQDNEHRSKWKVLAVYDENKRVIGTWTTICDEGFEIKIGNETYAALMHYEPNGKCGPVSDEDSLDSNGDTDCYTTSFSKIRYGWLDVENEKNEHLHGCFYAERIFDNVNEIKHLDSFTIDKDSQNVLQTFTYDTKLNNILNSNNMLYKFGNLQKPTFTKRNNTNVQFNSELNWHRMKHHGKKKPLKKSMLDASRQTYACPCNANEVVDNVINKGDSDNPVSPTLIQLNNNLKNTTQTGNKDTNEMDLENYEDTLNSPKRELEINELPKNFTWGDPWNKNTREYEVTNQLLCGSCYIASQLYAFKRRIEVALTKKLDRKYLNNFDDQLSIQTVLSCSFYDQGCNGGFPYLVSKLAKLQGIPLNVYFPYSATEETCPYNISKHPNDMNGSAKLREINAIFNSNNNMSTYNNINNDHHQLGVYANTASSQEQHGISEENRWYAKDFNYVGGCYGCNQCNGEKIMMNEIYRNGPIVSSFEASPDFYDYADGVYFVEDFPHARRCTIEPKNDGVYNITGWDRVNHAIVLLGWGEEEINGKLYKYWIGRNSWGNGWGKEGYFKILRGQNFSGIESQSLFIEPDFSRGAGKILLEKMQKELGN

| SMILES | % Inhibition @ 10 uM [%] |
| --- | --- |
| CCOC(=O)C1=C(CN2CCC(c3ccccc3)C2)NC(=O)NC1c1cccs1 (centres unmarked) | 3.22 |
| Nc1cc(-c2ccccc2)nn1S(=O)(=O)c1c(F)c(F)c(F)c(F)c1F | -2.88 |
| Cc1ccc(Cl)cc1NC(=O)COc1ccccc1 | -3.03 |
| CC(C)c1ccc(NC(=O)c2ccc(Cl)cc2)cc1 | -0.192 |
| CN(CCCNC(=O)CCc1cn(C)c2ccccc12)C1CCCCC1 | 4.06 |
| CCOc1ccc(N2C(=O)c3ccccc3NC2c2ccc(Br)cc2)cc1 (centres unmarked) | -5.11 |
| COc1ccc(C(C)=O)cc1N1C(=O)C2C3C=CC(CC3)C2C1=O (centres unmarked) | 2.17 |
| CC(C)C[C@H](Nc1ccc([N+](=O)[O-])cc1)C(=O)NCC#N | -1.41 |
| Cc1ccc(C(O)c2ccccc2)s1 (centres unmarked) | 3.2 |
| O=C1NC(c2cccc(Br)c2)Nc2ccccc21 (centres unmarked) | 4.09 |
| CC(=O)c1cc2c(cc1NC(=O)c1ccc(Br)cc1)OCO2 | -1.98 |
| COc1cccc2c1Oc1nc(-c3ccc(O)cc3)nc(O)c1C2 | 2.32 |
| COc1ccc(/C=C/C(=O)NC2CCCCC2)cc1 | -2.27 |
| CC1=C(C#N)C(C(F)(F)F)(C(F)(F)F)NC(=O)N1 | 3.36 |
| Cc1c(C(=O)NCCCC(=O)O)c(-c2ccccc2)nn1-c1ccccc1 | -4.61 |
| CC1=C(C(=O)Nc2ccccn2)C(c2cn(C)nc2C)C2=C(O)CCCC2=N1 (centres unmarked) | 1.43 |
| NC(=O)C1CCN(CCCc2ccccc2)CC1 | 0.265 |
| O=C(NC1CCCCCC1)c1ccc([N+](=O)[O-])o1 | 2.99 |
| CCC(CC)C(=O)Nc1cc(OC)ccc1OC | 5.25 |
| CCOc1cc2c(cc1OCC)C(CN1C(=O)c3ccccc3C1=O)=NCC2 | -6.35 |
| O=C(NCC1COc2ccccc2O1)c1ccc(F)cc1 (centres unmarked) | 1.81 |
| CNCC(O)CN1CCN(c2ccccc2OC)CC1 (centres unmarked) | 5.37 |
| CCOC(=O)c1sc2nc3n(c(=O)c2c1C)CCC(C)CC3 (centres unmarked) | 1.48 |
| CCOC(=O)/C=C(/C)N1N=C(/C=C/c2ccccc2)CC1c1ccccc1 (centres unmarked) | -1.45 |
| COc1ccc2[nH]c3c(=O)n(CCCC(=O)NC4CCCc5ccccc54)c(=S)[nH]c3c2c1 (centres unmarked) | -0.495 |
| CC1=C(C(=O)Nc2ccc(Br)cc2)C(c2cccc3ccccc23)NC(=O)N1 (centres unmarked) | -10.9 |
| Nc1c(-c2c[nH]c3ccccc23)c(-c2ccccc2)nn1-c1ccccc1 | 9.1 |
| CC1=CC2=NC(=O)/C(=C\c3ccc(Br)o3)C(=N)N2O1 | -5.34 |
| CC(C)(C)C1CCC(OC(=O)CCC(=O)Nc2ccc([N+](=O)[O-])cc2)CC1 (centres unmarked) | 1.54 |
